According to the RNAGym collection of RNA variant scans (doi:10.1101/gad.245936.114):
This sample is rich in variants without activity.

B1: tRNA (parent)
chain: CUCUCGGUAGCCAAGUUGGUUUAAGGCGCAAGACUUUAAUUUAUCACUACGAAAUCUUGAGAUCGGGCGUUCGACUCGCCCCCGGGAGAUUUUUUCCUCGAGCAA

Variants of: B1
Test: nonsense suppression (GFP-seq) (ratio to wild type); higher = more function; SUP4oc tRNA, yeast GFP reporter sort-seq
Method in brief: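 Yeast were grown in raffinose/galactose medium with 80 mg/L adenine, each strain bearing a genome-integrated ochre-suppressor tRNA variant from a ~3% random-mutation library, a galactose-driven GFP ochre reporter, and RFP. After sorting into GFP/RFP bins, every bin was sequenced on an Illumina platform at phred ≥30. The GFPSEQ value, a measure of nonsense suppression, is the weighted bin median GFP/RFP relative to the unmutated parent tRNA, using each variant's estimated cell share per bin as the weight. Only variants with ≥100 reads and ≥30 cells were included.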

Compared with A33U U63A, A33G U55A A62U is lower in nonsense suppression: 0.0268 for the first, no more than 0.026 for the second.

C34A C56G C81A and C34A G67A G85C A87U cannot be ordered by nonsense suppression: no more than 0.026 for the first, no more than 0.026 for the second.

First: A33U U55G
Second: A33U U55C
The nonsense suppression of the first is higher: 0.167 for the first, no more than 0.026 for the second.

G32U G69U and A33G U57C C81U cannot be ordered by nonsense suppression: no more than 0.026 for the first, no more than 0.026 for the second.

G32C C80G and G32C G59U U71C cannot be ordered by nonsense suppression: no more than 0.026 for the first, no more than 0.026 for the second.

C34A U55C G66A and G32U U58A G59U G88C cannot be ordered by nonsense suppression: no more than 0.026 for the first, no more than 0.026 for the second.

A33U C56G and A33C C64A G66C U70A A87U cannot be ordered by nonsense suppression: no more than 0.026 for the first, no more than 0.026 for the second.

G32C U70C and G32C G59C cannot be ordered by nonsense suppression: no more than 0.026 for the first, no more than 0.026 for the second.

C34G G66A and G32A C72U C82G A89G cannot be ordered by nonsense suppression: no more than 0.026 for the first, no more than 0.026 for the second.

G32A G73U and A33C G67U cannot be ordered by nonsense suppression: no more than 0.026 for the first, no more than 0.026 for the second.

C34U A60U A74C and G32A A54U G66A cannot be ordered by nonsense suppression: no more than 0.026 for the first, no more than 0.026 for the second.

A33C U57G C64G and C34G C56U G66C G85C cannot be ordered by nonsense suppression: no more than 0.026 for the first, no more than 0.026 for the second.

C34G A89G and G32C G61U cannot be ordered by nonsense suppression: no more than 0.026 for the first, no more than 0.026 for the second.

A33U C34G U58A G61C and G32A A60C G65U cannot be ordered by nonsense suppression: no more than 0.026 for the first, no more than 0.026 for the second.

C34A U63A G65U and G32C G67A C72U cannot be ordered by nonsense suppression: no more than 0.026 for the first, no more than 0.026 for the second.

C34G C72A and G32A G66U cannot be ordered by nonsense suppression: no more than 0.026 for the first, no more than 0.026 for the second.

A33C C34U A87G and G32A A33G U71A C82G cannot be ordered by nonsense suppression: no more than 0.026 for the first, no more than 0.026 for the second.

G32C C34G C72A and A33G G85U cannot be ordered by nonsense suppression: no more than 0.026 for the first, no more than 0.026 for the second.

C34U C75G and G32U C56U C83G cannot be ordered by nonsense suppression: no more than 0.026 for the first, no more than 0.026 for the second.

A33U C56G G67C and A33U G78A cannot be ordered by nonsense suppression: no more than 0.026 for the first, no more than 0.026 for the second.

A33U A74U and C34G G59U G65U cannot be ordered by nonsense suppression: no more than 0.026 for the first, no more than 0.026 for the second.

A33U C34U and C34A U55C U57A G73A U76G cannot be ordered by nonsense suppression: no more than 0.026 for the first, no more than 0.026 for the second.

C34G U55A A87C and A33U C79A cannot be ordered by nonsense suppression: no more than 0.026 for the first, no more than 0.026 for the second.

First: A33G C75A
Second: G32A U76G
The nonsense suppression of the first is higher: 0.235 for the first, no more than 0.026 for the second.

C34G A62U and A33G A60U G65C G66C cannot be ordered by nonsense suppression: no more than 0.026 for the first, no more than 0.026 for the second.

C34G G59A and A33U A60C cannot be ordered by nonsense suppression: no more than 0.026 for the first, no more than 0.026 for the second.

G32U G73A and A33G A60C G86U cannot be ordered by nonsense suppression: no more than 0.026 for the first, no more than 0.026 for the second.

Compared with A31U U58A C80A, A33U C75A is higher in nonsense suppression: no more than 0.026 for the first, 0.192 for the second.

A33G C68A and A33G C68G cannot be ordered by nonsense suppression: no more than 0.026 for the first, no more than 0.026 for the second.

G32C G69A C80G A87U and G32A G59U U70A cannot be ordered by nonsense suppression: no more than 0.026 for the first, no more than 0.026 for the second.

A31U U58C A60C G69A U71A and C34G U57G G85A cannot be ordered by nonsense suppression: no more than 0.026 for the first, no more than 0.026 for the second.

C34U C81U and A31U U35C cannot be ordered by nonsense suppression: no more than 0.026 for the first, no more than 0.026 for the second.

A31U U35A and G32A C75A cannot be ordered by nonsense suppression: no more than 0.026 for the first, no more than 0.026 for the second.

A33U C77G and C34A G84A A87G cannot be ordered by nonsense suppression: no more than 0.026 for the first, no more than 0.026 for the second.

G32A U57A C64U and G32U C56A C72G cannot be ordered by nonsense suppression: no more than 0.026 for the first, no more than 0.026 for the second.

A33U C64U C72U C80A and A33G C56A U58A G69C cannot be ordered by nonsense suppression: no more than 0.026 for the first, no more than 0.026 for the second.

A33C G67U A74U and A33C G67U A74G cannot be ordered by nonsense suppression: no more than 0.026 for the first, no more than 0.026 for the second.

C34A G61U and C34A G61A cannot be ordered by nonsense suppression: no more than 0.026 for the first, no more than 0.026 for the second.

A33U G67C and C34G G61U G67C cannot be ordered by nonsense suppression: no more than 0.026 for the first, no more than 0.026 for the second.

A31U G78C G88U and A33G C56U G78A C81U G84A cannot be ordered by nonsense suppression: no more than 0.026 for the first, no more than 0.026 for the second.

G32A A60C G65A U70A and G32C A33U G84C cannot be ordered by nonsense suppression: no more than 0.026 for the first, no more than 0.026 for the second.

G32C U57G and C34U A74U cannot be ordered by nonsense suppression: no more than 0.026 for the first, no more than 0.026 for the second.

C34U A74C and A33U U55A G78U C83G cannot be ordered by nonsense suppression: no more than 0.026 for the first, no more than 0.026 for the second.

Going from C34A U55A C80A to A31U G85A, the nonsense suppression rises from no more than 0.026 to 0.164.

C34G U71C G86A and G32U G66U G69U cannot be ordered by nonsense suppression: no more than 0.026 for the first, no more than 0.026 for the second.

A33U A62G C64U and C34G C64U cannot be ordered by nonsense suppression: no more than 0.026 for the first, no more than 0.026 for the second.

C34G C64G and A33G A54G A74C cannot be ordered by nonsense suppression: no more than 0.026 for the first, no more than 0.026 for the second.

A33G C79A C82U and A31U U58C G59U A89U cannot be ordered by nonsense suppression: no more than 0.026 for the first, no more than 0.026 for the second.

A33G A62G G65A G73C and G32U A33U A54C U57G G66A cannot be ordered by nonsense suppression: no more than 0.026 for the first, no more than 0.026 for the second.

A33U A74U G84U G85A and G32U C75A cannot be ordered by nonsense suppression: no more than 0.026 for the first, no more than 0.026 for the second.

G32U C75G and A33G G65A cannot be ordered by nonsense suppression: no more than 0.026 for the first, no more than 0.026 for the second.

G32A U35A and C34G A60C U63G A89C cannot be ordered by nonsense suppression: no more than 0.026 for the first, no more than 0.026 for the second.

C34A G65U and C34G G65U G66U cannot be ordered by nonsense suppression: no more than 0.026 for the first, no more than 0.026 for the second.

A33G U70G and A33G U70C cannot be ordered by nonsense suppression: no more than 0.026 for the first, no more than 0.026 for the second.

C34G G78A C81G and G32A U55A C68U cannot be ordered by nonsense suppression: no more than 0.026 for the first, no more than 0.026 for the second.

G32U A60U C81A and C34U C77G C79G A89U cannot be ordered by nonsense suppression: no more than 0.026 for the first, no more than 0.026 for the second.

A33G U55A C83G and A33G C79A cannot be ordered by nonsense suppression: no more than 0.026 for the first, no more than 0.026 for the second.

G32C C34A U35C A60G and G32C G66U cannot be ordered by nonsense suppression: no more than 0.026 for the first, no more than 0.026 for the second.

G32U A74C A87C and C34G G65A C83U A87G cannot be ordered by nonsense suppression: no more than 0.026 for the first, no more than 0.026 for the second.

A31U U55C G59C U63G A89G and G32U A54C G65U U71C cannot be ordered by nonsense suppression: no more than 0.026 for the first, no more than 0.026 for the second.

C34G G84A and G32U A33U cannot be ordered by nonsense suppression: no more than 0.026 for the first, no more than 0.026 for the second.

G32C A62U and G32U A33G C56U G88C cannot be ordered by nonsense suppression: no more than 0.026 for the first, no more than 0.026 for the second.

C34G G59U C75G and G32U A60C cannot be ordered by nonsense suppression: no more than 0.026 for the first, no more than 0.026 for the second.

C34A U71C and A33G C64G G86A cannot be ordered by nonsense suppression: no more than 0.026 for the first, no more than 0.026 for the second.

G32A C83G and G32C A33G G69C cannot be ordered by nonsense suppression: no more than 0.026 for the first, no more than 0.026 for the second.

C34U G59U and G32U G78A cannot be ordered by nonsense suppression: no more than 0.026 for the first, no more than 0.026 for the second.

A33U C75A A89U and G32C U35A A54C C75U A87U cannot be ordered by nonsense suppression: no more than 0.026 for the first, no more than 0.026 for the second.

C34A G69A and C34A G69U cannot be ordered by nonsense suppression: no more than 0.026 for the first, no more than 0.026 for the second.

G32U U57A G61A and C34G G61A C75U G78C cannot be ordered by nonsense suppression: no more than 0.026 for the first, no more than 0.026 for the second.

G32U C34U C81A and C34G G73C cannot be ordered by nonsense suppression: no more than 0.026 for the first, no more than 0.026 for the second.

G32A C56A A60G C72A and C34A C81G C82A cannot be ordered by nonsense suppression: no more than 0.026 for the first, no more than 0.026 for the second.

A33C U55C C64G U76C and A33C U63A cannot be ordered by nonsense suppression: no more than 0.026 for the first, no more than 0.026 for the second.

A33C U63G and A31U U63G G86A cannot be ordered by nonsense suppression: no more than 0.026 for the first, no more than 0.026 for the second.

A33U U63A C72U and C34G C80A G88A cannot be ordered by nonsense suppression: no more than 0.026 for the first, no more than 0.026 for the second.

C34G C77A and A33C A62C G69A C82U cannot be ordered by nonsense suppression: no more than 0.026 for the first, no more than 0.026 for the second.

C34U C68U U70G C72G C75U and A33U U58G A62U C81U G86C cannot be ordered by nonsense suppression: no more than 0.026 for the first, no more than 0.026 for the second.

G32U A33G C68A C82A and A33U C81A cannot be ordered by nonsense suppression: no more than 0.026 for the first, no more than 0.026 for the second.

C34G U55C U71G C75A and C34G G61U cannot be ordered by nonsense suppression: no more than 0.026 for the first, no more than 0.026 for the second.

Compared with C34G G61A, A33G G61C U76A is lower in nonsense suppression: 0.0334 for the first, no more than 0.026 for the second.

C34A C64U G88A and G32A A33G U63A cannot be ordered by nonsense suppression: no more than 0.026 for the first, no more than 0.026 for the second.

G32C G84C and C34A U70G G73C C77G C82A cannot be ordered by nonsense suppression: no more than 0.026 for the first, no more than 0.026 for the second.

A31U U35G U71G A89G and A33C C34U C79A A87U cannot be ordered by nonsense suppression: no more than 0.026 for the first, no more than 0.026 for the second.

A33C C34U U70C and A33G U55A cannot be ordered by nonsense suppression: no more than 0.026 for the first, no more than 0.026 for the second.

With A31U G78U C80A G88U the nonsense suppression was no more than 0.026.
